From PubChem BioAssay AID2060348 (Molecular Pharmacology Branch, DTP, NCI, 2025)
Certain results were filed several times, with different values. Only these are listed. There may be further records. Values given together are repeated measurements (runs, samples, wells, individuals or studies).

Test system: 885724-159-R-J1-PDC spheroids viability
Test: Anticancer human tumor 885724-159-R-J1-PDC patient-derived pancreatic adenocarcinoma cell line growth inhibition [TAK]
Conditions: drug combinations; compound alone; run of 02/28/2020
Source text: Combinatorial screen of targeted agents with TAK-243 and ipatasertib in multi-cell type tumor spheroids
A high-throughput screen of multi-cell type tumor spheroids was designed to identify active combinations of targeted small molecules and TAK-243 or ipatasertib. Complex spheroids include a stromal component modeled by human endothelial cells (HUVEC) and fibroblasts modeled by human mesenchymal stem cells (MSCs). The concentration ranges selected for each drug and investigational agent were based upon clinically achievable concentrations if the clinical Cmax of the agent was known.
Compounds. […] If the clinical Cmax for an agent had not been determined, the highest concentration tested was 10 microM.
NCI60 Cell Culture. […] The optimal seeding densities for each of the cell lines at each time point assessed were determined prior to performing the concentration response studies. […]
For the pre-screen, cell seeding densities were determined from a titration spanning the range from 5,000 to 313 cells per well. […]
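Note: spheroids exposed to drugs for seven days.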

In the case of `CC(C)NCC(C(=O)N1CCN(c2ncnc3c2C(C)CC3O)CC1)c1ccc(Cl)cc1` (stereo unspecified), the IC50 is reported as 7.04, 10.7, 9.45, 4.68, 4.51, 7.46, 5.55, 5.18, 3.49, 5.89 µM.
